# Measured values reported in the supplement of paper PMC8728848.
# The list shows a part of the results.
# B1: Gal 4 (Canis lupus) (protein)
# chain: MAYVPAPGYQPTYNPTLPYNKPIPGGLSVGMSVYIQGITSEHMRRFCVNFVAGAHPGSDIAFHFNPRFDGWDKVVFNSHLGGKWGSEEKKRSMPFRKGTHFELVFMVLAEHYKVVVNGNPFYEFGHRLPLQLVTHLQVEGDVELQSINFIGGTQPLGQGPGHTQQQPSSLPTMEGPPVFNPPVPFRKRLQGGLTVRRTVIIKGFVPFTSKSFVINFMVESSGDLALHINPRLTEGLVVRNSCLNGSWGSEDRKLSYNPFIPGQFFDLSIRCGMDRFKVYANGQHLFDFSHRLLALQNVDMLEINGDVTLSYIQV
# What was measured:
# Assay in all cases: glycan array binding signal (z-score within array); higher = stronger binding
# Settings in all cases: glycan notation: IUPAC condensed, linker removed
# Fuc(a1-2)Gal = target: Fuc(a1-2)Gal
# Summary of the method: (§1)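 Columns mapping to the same glycan were averaged after glycan names were converted to IUPAC-condensed notation. The data come from 3228 arrays in the Consortium for Functional Glycomics database, limited to those with an available protein sequence. Binding is reported as a within-array Z-score averaged across arrays of one protein sequence and across linkers.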
# Fuc(a1-2)Gal(b1-3)GalNAc = target: Fuc(a1-2)Gal(b1-3)GalNAc
# Summary of the method: as §1
# [1] = target: Fuc(a1-2)Gal(b1-3)GalNAc(a1-3)[Fuc(a1-2)]Gal(b1-4)Glc
# Summary of the method: as §1
# [2] = target: Fuc(a1-2)Gal(b1-3)GalNAc(a1-3)[Fuc(a1-2)]Gal(b1-4)GlcNAc
# Summary of the method: as §1
# [3] = target: Fuc(a1-2)Gal(b1-3)GalNAc(b1-3)Gal
# Summary of the method: as §1
# [4] = target: Fuc(a1-2)Gal(b1-3)GalNAc(b1-3)Gal(a1-4)Gal(b1-4)Glc
# Summary of the method: as §1
# [5] = target: Fuc(a1-2)Gal(b1-3)GalNAc(b1-4)[Neu5Ac(a2-3)]Gal(b1-4)Glc
# Summary of the method: as §1
# Fuc(a1-2)Gal(b1-3)GlcNAc = target: Fuc(a1-2)Gal(b1-3)GlcNAc
# Summary of the method: as §1
# [6] = target: Fuc(a1-2)Gal(b1-3)GlcNAc(b1-2)Man(a1-3)[Fuc(a1-2)Gal(b1-3)GlcNAc(b1-2)Man(a1-6)]Man(b1-4)GlcNAc(b1-4)GlcNAc
# Summary of the method: as §1
# [7] = target: Fuc(a1-2)Gal(b1-3)GlcNAc(b1-2)Man(a1-3)[Fuc(a1-2)Gal(b1-3)GlcNAc(b1-2)Man(a1-6)]Man(b1-4)GlcNAc(b1-4)[Fuc(a1-6)]GlcNAc
# Summary of the method: as §1
# [8] = target: Fuc(a1-2)Gal(b1-3)GlcNAc(b1-3)Gal(b1-4)Glc
# Summary of the method: as §1
# [9] = target: Fuc(a1-2)Gal(b1-3)GlcNAc(b1-3)GalNAc
# Summary of the method: as §1
# [10] = target: Fuc(a1-2)Gal(b1-3)GlcNAc(b1-3)[Fuc(a1-3)[Gal(b1-4)]GlcNAc(b1-6)]Gal(b1-4)Glc
# Summary of the method: as §1
# [11] = target: Fuc(a1-2)Gal(b1-3)GlcNAc(b1-3)[Gal(b1-4)GlcNAc(b1-6)]Gal(b1-4)Glc
# Summary of the method: as §1
# [12] = target: Fuc(a1-2)Gal(b1-3)[Fuc(a1-4)]GlcNAc
# Summary of the method: as §1
# [13] = target: Fuc(a1-2)Gal(b1-3)[Fuc(a1-4)]GlcNAc(b1-2)Man(a1-3)[Fuc(a1-2)Gal(b1-3)[Fuc(a1-4)]GlcNAc(b1-2)Man(a1-6)]Man(b1-4)GlcNAc(b1-4)GlcNAc
# Summary of the method: as §1
# [14] = target: Fuc(a1-2)Gal(b1-3)[Fuc(a1-4)]GlcNAc(b1-3)[Fuc(a1-3)[Gal(b1-4)]GlcNAc(b1-6)]Gal(b1-4)Glc
# Summary of the method: as §1
# [15] = target: Fuc(a1-2)Gal(b1-3)[Fuc(a1-4)]GlcNAc(b1-3)[Gal(b1-4)GlcNAc(b1-6)]Gal(b1-4)Glc
# Summary of the method: as §1
# Fuc(a1-2)Gal(b1-4)Glc = target: Fuc(a1-2)Gal(b1-4)Glc
# Summary of the method: as §1
# Fuc(a1-2)Gal(b1-4)Glc6S = target: Fuc(a1-2)Gal(b1-4)Glc6S
# Summary of the method: as §1
# Fuc(a1-2)Gal(b1-4)GlcNAc = target: Fuc(a1-2)Gal(b1-4)GlcNAc
# Summary of the method: as §1
# [16] = target: Fuc(a1-2)Gal(b1-4)GlcNAc(b1-2)Man(a1-3)[Fuc(a1-2)Gal(b1-4)GlcNAc(b1-2)Man(a1-6)]Man(b1-4)GlcNAc(b1-4)GlcNAc
# Summary of the method: as §1
# [17] = target: Fuc(a1-2)Gal(b1-4)GlcNAc(b1-2)Man(a1-3)[Fuc(a1-2)Gal(b1-4)GlcNAc(b1-2)Man(a1-6)]Man(b1-4)GlcNAc(b1-4)[Fuc(a1-6)]GlcNAc
# Summary of the method: as §1
# [18] = target: Fuc(a1-2)Gal(b1-4)GlcNAc(b1-2)[Fuc(a1-2)Gal(b1-4)GlcNAc(b1-4)]Man(a1-3)[Fuc(a1-2)Gal(b1-4)GlcNAc(b1-2)Man(a1-6)]Man(b1-4)GlcNAc(b1-4)GlcNAc
# Summary of the method: as §1
# [19] = target: Fuc(a1-2)Gal(b1-4)GlcNAc(b1-3)Gal(b1-4)GlcNAc
# Summary of the method: as §1
# [20] = target: Fuc(a1-2)Gal(b1-4)GlcNAc(b1-3)Gal(b1-4)GlcNAc(b1-3)Gal(b1-4)GlcNAc
# Summary of the method: as §1
# [21] = target: Fuc(a1-2)Gal(b1-4)GlcNAc(b1-3)GalNAc
# Summary of the method: as §1
# [22] = target: Fuc(a1-2)Gal(b1-4)GlcNAc6S
# Summary of the method: as §1
# [23] = target: Fuc(a1-2)Gal(b1-4)[Fuc(a1-3)]GlcNAc
# Summary of the method: as §1
# [24] = target: Fuc(a1-2)Gal(b1-4)[Fuc(a1-3)]GlcNAc(b1-2)Man(a1-3)[Fuc(a1-2)Gal(b1-4)[Fuc(a1-3)]GlcNAc(b1-2)Man(a1-6)]Man(b1-4)GlcNAc(b1-4)GlcNAc
# Summary of the method: as §1
# [25] = target: Fuc(a1-2)Gal(b1-4)[Fuc(a1-3)]GlcNAc(b1-2)[Fuc(a1-2)Gal(b1-4)[Fuc(a1-3)]GlcNAc(b1-4)]Man(a1-3)[Fuc(a1-2)Gal(b1-4)[Fuc(a1-3)]GlcNAc(b1-2)Man(a1-6)]Man(b1-4)GlcNAc(b1-4)GlcNAc
# Summary of the method: as §1
# [26] = target: Fuc(a1-2)Gal(b1-4)[Fuc(a1-3)]GlcNAc(b1-3)Gal(b1-4)[Fuc(a1-3)]GlcNAc
# Summary of the method: as §1
# [27] = target: Fuc(a1-2)Gal(b1-4)[Fuc(a1-3)]GlcNAc(b1-3)Gal(b1-4)[Fuc(a1-3)]GlcNAc(b1-3)Gal(b1-4)[Fuc(a1-3)]GlcNAc
# Summary of the method: as §1
# [28] = target: Fuc(a1-2)Gal(b1-4)[Fuc(a1-3)]GlcNAc(b1-3)GalNAc
# Summary of the method: as §1
# Fuc(a1-2)Gal6S(b1-4)Glc = target: Fuc(a1-2)Gal6S(b1-4)Glc
# Summary of the method: as §1
# [29] = target: Fuc(a1-2)Gal6S(b1-4)Glc6S
# Summary of the method: as §1
# [30] = target: Fuc(a1-2)Gal6S(b1-4)GlcNAc
# Summary of the method: as §1
# Fuc(a1-2)[Gal(a1-3)]Gal = target: Fuc(a1-2)[Gal(a1-3)]Gal
# Summary of the method: as §1
# [31] = target: Fuc(a1-2)[Gal(a1-3)]Gal(b1-3)GlcNAc
# Summary of the method: as §1
# [32] = target: Fuc(a1-2)[Gal(a1-3)]Gal(b1-3)GlcNAc(b1-2)Man(a1-3)[Fuc(a1-2)[Gal(a1-3)]Gal(b1-3)GlcNAc(b1-2)Man(a1-6)]Man(b1-4)GlcNAc(b1-4)GlcNAc
# Summary of the method: as §1
# [33] = target: Fuc(a1-2)[Gal(a1-3)]Gal(b1-3)GlcNAc(b1-3)GalNAc
# Summary of the method: as §1
# [34] = target: Fuc(a1-2)[Gal(a1-3)]Gal(b1-4)Glc
# Summary of the method: as §1
# [35] = target: Fuc(a1-2)[Gal(a1-3)]Gal(b1-4)GlcNAc
# Summary of the method: as §1
# [36] = target: Fuc(a1-2)[Gal(a1-3)]Gal(b1-4)GlcNAc(b1-2)Man(a1-3)[Fuc(a1-2)[Gal(a1-3)]Gal(b1-4)GlcNAc(b1-2)Man(a1-6)]Man(b1-4)GlcNAc(b1-4)GlcNAc
# Summary of the method: as §1
# [37] = target: Fuc(a1-2)[Gal(a1-3)]Gal(b1-4)GlcNAc(b1-2)Man(a1-3)[Fuc(a1-2)[Gal(a1-3)]Gal(b1-4)GlcNAc(b1-2)Man(a1-6)]Man(b1-4)GlcNAc(b1-4)[Fuc(a1-6)]GlcNAc
# Summary of the method: as §1
binder,measurement,setting,value
B1,glycan array binding signal (z-score),Fuc(a1-2)Gal,-0.149
same,glycan array binding signal (z-score),Fuc(a1-2)Gal(b1-3)GalNAc,-0.154
same,glycan array binding signal (z-score),[1],-0.13
same,glycan array binding signal (z-score),[2],-0.151
same,glycan array binding signal (z-score),[3],-0.153
same,glycan array binding signal (z-score),[4],-0.147
same,glycan array binding signal (z-score),[5],-0.15
same,glycan array binding signal (z-score),Fuc(a1-2)Gal(b1-3)GlcNAc,-0.155
same,glycan array binding signal (z-score),[6],-0.129
same,glycan array binding signal (z-score),[7],-0.145
same,glycan array binding signal (z-score),[8],0.072
same,glycan array binding signal (z-score),[9],-0.154
same,glycan array binding signal (z-score),[10],-0.147
same,glycan array binding signal (z-score),[11],-0.144
same,glycan array binding signal (z-score),[12],-0.153
same,glycan array binding signal (z-score),[13],-0.126
same,glycan array binding signal (z-score),[14],-0.157
same,glycan array binding signal (z-score),[15],-0.151
same,glycan array binding signal (z-score),Fuc(a1-2)Gal(b1-4)Glc,-0.09
same,glycan array binding signal (z-score),Fuc(a1-2)Gal(b1-4)Glc6S,0.071
same,glycan array binding signal (z-score),Fuc(a1-2)Gal(b1-4)GlcNAc,-0.152
same,glycan array binding signal (z-score),[16],-0.141
same,glycan array binding signal (z-score),[17],-0.159
same,glycan array binding signal (z-score),[18],-0.146
same,glycan array binding signal (z-score),[19],-0.117
same,glycan array binding signal (z-score),[20],-0.136
same,glycan array binding signal (z-score),[21],-0.137
same,glycan array binding signal (z-score),[22],-0.138
same,glycan array binding signal (z-score),[23],-0.158
same,glycan array binding signal (z-score),[24],-0.093
same,glycan array binding signal (z-score),[25],-0.118
same,glycan array binding signal (z-score),[26],-0.151
same,glycan array binding signal (z-score),[27],-0.151
same,glycan array binding signal (z-score),[28],-0.113
same,glycan array binding signal (z-score),Fuc(a1-2)Gal6S(b1-4)Glc,-0.149
same,glycan array binding signal (z-score),[29],-0.151
same,glycan array binding signal (z-score),[30],-0.153
same,glycan array binding signal (z-score),Fuc(a1-2)[Gal(a1-3)]Gal,-0.149
same,glycan array binding signal (z-score),[31],2.33
same,glycan array binding signal (z-score),[32],0.887
same,glycan array binding signal (z-score),[33],-0.06
same,glycan array binding signal (z-score),[34],8.77
same,glycan array binding signal (z-score),[35],1.75
same,glycan array binding signal (z-score),[36],2.77
same,glycan array binding signal (z-score),[37],0.337
